Reference: the supplement of paper PMC4967469
A lower IC50 marks a more sensitive line; where the fit passes the top or lowest dose, that dose stands as a limit. AUC is the area under the same curve over the 256-fold range up to the top dose, as a fraction; values near 1 show little effect. For part of these data: A top dose marked as inferred was calculated from the reported fits.

Columns and labels:
Test in all cases: Viability of human cancer cell lines after 72 h of drug (GDSC screen)
[1] = compound: C=CC(=O)Nc1cc(-n2c(=O)ccc3cnc4ccc(-c5ccc(NS(C)(=O)=O)cc5)cc4c32)ccc1C [BMX-IN-1 (QL-XII-61)]; settings: top dose 10 µM; top dose inferred
Protocol: (§1)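 Human cancer cell lines in 384-well plates, medium with 10% serum, drug for 72 h over a 256-fold dose range (nine 2-fold or five 4-fold steps up to the top dose). Adherent lines were fixed and stained with the nucleic acid dye Syto60, suspension lines read with resazurin; signal relative to control wells, capped at 0 and 100%. One two-parameter sigmoid per drug and line, fitted in a mixed model over all curves with the slope shared within a line.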

[2] = compound: Cc1cnc(Nc2ccc(OCCN3CCCC3)cc2)nc1Nc1cccc(S(=O)(=O)NC(C)(C)C)c1 [TG101348]; settings: top dose 10.24 µM
Protocol: as §1

[3] = compound: COc1cccc2cc(-c3nc([C@H]4CC[C@H](C(=O)O)CC4)n4ncnc(N)c34)[nH]c12 [OSI-027]; settings: top dose 20 µM
Protocol: as §1

[4] = compound: CCc1cc(-c2n[nH]c(C)c2-c2ccc3c(c2)OCCO3)c(O)cc1O [CCT018159]; settings: top dose 10 µM; top dose inferred
Protocol: as §1

[5] = compound: C=CCNC1=C2C[C@@H](C)C[C@H](OC)[C@H](O)[C@@H](C)/C=C(\C)[C@H](OC(N)=O)[C@@H](OC)/C=C\C=C(/C)C(=O)NC(=CC1=O)C2=O [17-AAG]; settings: top dose 1 µM
Protocol: as §1

[6] = compound: CN(C)Cc1cccc(N=C(c2ccccc2)c2c(O)[nH]c3cc(C(=O)N(C)C)ccc23)c1 [BIX02189]; settings: top dose 20 µM; top dose inferred
Protocol: as §1

[7] = compound: COC(=O)CNC(=O)C(=O)OC [Dimethyloxalylglycine]; settings: top dose 4000 µM; top dose inferred
Protocol: as §1

[8] = compound: CS(=O)(=O)c1ccc(C(=O)Nc2ccc(Cl)c(-c3ccccn3)c2)c(Cl)c1 [Vismodegib]; settings: top dose 10 µM; top dose inferred
Protocol: as §1

[9] = compound: O=C(c1ccc(C(=O)N2CCC(N3CCCC3)CC2)c(Nc2ccccc2)c1)N1CCC(N2CCCC2)CC1 [UNC1215]; settings: top dose 1 µM; top dose inferred
Protocol: as §1

[10] = compound: Cc1cnc(Nc2ccc(F)cc2Cl)nc1-c1c[nH]c(C(=O)N[C@H](CO)c2cccc(Cl)c2)c1 [VX-11e]; settings: top dose 5.12 µM; top dose inferred
Protocol: as §1

[11] = compound: COc1cccc2c1C(=O)c1c(O)c3c(c(O)c1C2=O)C[C@@](O)(C(=O)CO)C[C@@H]3O[C@H]1C[C@H](N)[C@H](O)[C@H](C)O1 [Doxorubicin]; settings: top dose 1.024 µM
Protocol: as §1

Cell Line	AUC [1]	IC50 [1] [µM]	AUC [2]	IC50 [2] [µM]	AUC [3]	IC50 [3] [µM]	AUC [4]	IC50 [4] [µM]	AUC [5]	IC50 [5] [µM]	AUC [6]	IC50 [6] [µM]	AUC [7]	IC50 [7] [µM]	AUC [8]	IC50 [8] [µM]	AUC [9]	IC50 [9] [µM]	AUC [10]	IC50 [10] [µM]	AUC [11]	IC50 [11] [µM]
DBTRG-05MG (glioma, adherent)	0.947	> 10	0.877	> 10.2	0.633	3.11	0.969	> 10	0.763	0.418	0.941	> 20	0.526	298	0.979	> 10	0.973	> 1	0.898	> 5.12	0.513	0.0701
WSU-DLCL2 (B-cell lymphoma, suspension)	0.459	0.494	0.673	1.76	0.749	5.55	0.928	> 10	0.935	> 1	0.993	> 20	0.968	> 4000	0.971	> 10	0.99	> 1	0.993	> 5.12	0.587	0.106
CP50-MEL-B (melanoma, adherent)	0.942	> 10	0.988	> 10.2	0.826	11.9	0.963	> 10	0.433	0.041	0.967	> 20	0.684	813	0.979	> 10	0.982	> 1	0.852	3.91	0.925	> 1.02
SJRH30 (rhabdomyosarcoma, adherent)	0.966	> 10	0.706	2.5	0.454	0.93	0.9	> 10	0.911	> 1	0.986	> 20	0.753	1370	0.986	> 10	0.956	> 1	0.986	> 5.12	0.628	0.146
SBC-3 (small cell lung carcinoma, adherent)	0.955	> 10	0.637	1.47	0.059	< 0.0781	0.943	> 10	0.867	0.769	0.895	> 20	0.201	36.3	0.989	> 10	0.988	> 1	0.912	> 5.12	0.27	0.0153
SNG-M (endometrium, adherent)	0.664	1.76	0.65	1.65	0.347	0.474	0.797	4.6	0.944	> 1	0.92	> 20	0.834	2520	0.977	> 10	0.982	> 1	0.833	3.19	0.295	0.0172
GR-ST (lymphoblastic leukaemia, suspension)	0.715	2.92	0.568	1.02	0.219	0.154	0.831	8.27	0.926	> 1	0.863	> 20	0.482	222	0.971	> 10	0.978	> 1	0.938	> 5.12	0.719	0.309
CL-11 (large intestine, adherent)	0.983	> 10	0.987	> 10.2	0.908	> 20	0.967	> 10	0.937	> 1	0.985	> 20	0.864	> 4000	0.941	> 10	0.984	> 1	0.949	> 5.12	0.987	> 1.02
Hs766T (pancreas, adherent)	0.98	> 10	0.972	> 10.2	0.85	> 20	0.973	> 10	0.675	0.227	0.984	> 20	0.724	1350	0.971	> 10	0.982	> 1	0.983	> 5.12	0.954	> 1.02
WM1552C (melanoma, adherent)	0.986	> 10	0.776	4.1	0.558	1.81	0.956	> 10	0.779	0.412	0.986	> 20	0.634	587	0.986	> 10	0.985	> 1	0.987	> 5.12	0.485	0.0582
ATN-1 (T-cell lymphoblastic leukaemia, suspension)	0.842	6.36	0.561	0.928	0.374	0.575	0.863	7.73	0.723	0.256	0.931	> 20	0.667	702	0.963	> 10	0.986	> 1	0.959	> 5.12	0.493	0.0613
DND-41 (T-cell leukaemia, suspension)	0.848	6.12	0.389	0.331	0.342	0.483	0.842	5.85	0.962	> 1	0.735	5.3	0.269	60.6	0.961	> 10	0.987	> 1	0.756	1.56	0.49	0.0603
